Assay results from publication PMC4336329 (PLoS ONE, 2015).
About 2,200 (0.71%) of roughly 310,000 compounds showed an effect of 50% or more. Effects have a minus sign here. The list shows a part of the results.

target: human ether-à-go-go-related gene (hERG) potassium channel (human, UniProt Q12809); assay: primary screen, population patch clamp on CHO cells stably expressing hERG
Sequence (Q12809 whole entry, looked up): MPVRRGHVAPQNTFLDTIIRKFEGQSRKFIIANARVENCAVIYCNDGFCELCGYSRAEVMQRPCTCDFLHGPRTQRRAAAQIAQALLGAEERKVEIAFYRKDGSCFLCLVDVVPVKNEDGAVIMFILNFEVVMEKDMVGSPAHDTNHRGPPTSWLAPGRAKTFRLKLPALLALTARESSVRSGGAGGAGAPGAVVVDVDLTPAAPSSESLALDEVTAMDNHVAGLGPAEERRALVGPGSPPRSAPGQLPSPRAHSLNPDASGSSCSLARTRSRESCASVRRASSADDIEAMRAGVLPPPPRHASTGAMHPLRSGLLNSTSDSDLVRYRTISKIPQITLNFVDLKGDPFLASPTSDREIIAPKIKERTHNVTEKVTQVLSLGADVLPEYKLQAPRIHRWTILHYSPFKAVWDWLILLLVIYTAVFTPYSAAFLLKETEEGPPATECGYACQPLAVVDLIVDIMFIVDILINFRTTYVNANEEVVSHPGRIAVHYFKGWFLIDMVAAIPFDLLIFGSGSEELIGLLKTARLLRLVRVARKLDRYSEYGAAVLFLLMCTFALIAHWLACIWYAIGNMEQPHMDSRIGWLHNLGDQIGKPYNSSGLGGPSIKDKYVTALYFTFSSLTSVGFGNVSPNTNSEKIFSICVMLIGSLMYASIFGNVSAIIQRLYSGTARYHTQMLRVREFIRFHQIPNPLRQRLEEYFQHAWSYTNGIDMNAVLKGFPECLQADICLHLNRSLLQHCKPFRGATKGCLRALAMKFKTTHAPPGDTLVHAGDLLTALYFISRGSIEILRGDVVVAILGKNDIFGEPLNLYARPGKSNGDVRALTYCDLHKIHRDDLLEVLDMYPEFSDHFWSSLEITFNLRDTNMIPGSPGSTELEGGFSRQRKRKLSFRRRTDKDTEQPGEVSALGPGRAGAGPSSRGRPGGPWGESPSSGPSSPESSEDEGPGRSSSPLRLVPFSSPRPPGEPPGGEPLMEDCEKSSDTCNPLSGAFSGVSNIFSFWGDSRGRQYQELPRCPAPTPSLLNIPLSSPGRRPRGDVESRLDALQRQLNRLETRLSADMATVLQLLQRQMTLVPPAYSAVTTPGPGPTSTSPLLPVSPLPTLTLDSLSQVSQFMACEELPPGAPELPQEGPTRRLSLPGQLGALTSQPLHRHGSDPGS

Compound | hERG current change (%, negative = inhibition) at 1uM
CC(C)c1ccccc1OCCNC(=S)NC(=O)c1cccnc1 | 14.9%
CCCCNC(=O)Cn1cnc2c(cnn2-c2ccc(C)c(C)c2)c1=O | 0.431%
COc1cccc(N2CCN(C(=S)NCCc3ccccc3)CC2)c1 | 4.9%
Cn1c(Cc2ccccc2)nnc1SCC(=O)c1ccc(Br)s1 | -0.365%
C=C(CO)CC1CC(O)[C@]2(C)OC3CC4OC5C[C@]6(C)O[C@]7(C)CCC8OC9C[C@]%10(C)OC%11C(C)=CC(=O)OC%11CC%10OC9C[C@@H](C)C8OC7CC6O[C@]5(C)C/C=C\C4OC3CC2O1 (stereo partly shown) | 7.4%
COC(=O)CN1C(=S)N(Cc2ccccc2)C(=O)C1CC(=O)Nc1ccc(Br)cc1 (stereo not shown) | 16.9%
O=C(CC1S/C(=N/N=C/c2cccs2)NC1=O)Nc1ccccc1F (stereo not shown) | 23.6%
Cc1ccnc(NC(=S)NC(=O)c2ccco2)c1 | 0.569%
O=C(CNC(=O)c1ccc(Oc2ccccc2)cc1)OC1CCCCC1=O (stereo not shown) | -58.8%
N#CC1(NC(=O)COc2ccc3ccc(=O)oc3c2)CCCCC1 | 8.07%
c1csc(CNc2nc(-c3cccs3)nc3ccccc23)c1 | 0.853%
S=c1[nH]nc(Cc2ccccc2)n1-c1ccc(Cl)cc1 | 12.7%
COC(CN1CCc2c(C)nc3c(C#N)cnn3c21)OC | 7.44%
Nc1cc(C(=O)OCC(=O)NCC2CCCO2)ccc1Cl (stereo not shown) | 9.38%
O=C(Nc1ccc(F)cc1F)c1c(C(F)(F)F)ccnc1Oc1ccccc1 | 5.44%
CCOc1ccc(OCC(=O)OCC(=O)NNC(=O)c2ccc([N+](=O)[O-])cc2)cc1 | 4.82%
Cc1ccc(-c2csc(N/N=C/c3ccco3)n2)c(C)c1 | 13.4%
COc1ccc(Cl)cc1NC(=O)CCn1cnc2ccccc2c1=O | 6.22%
COc1ccc(-n2cc(-c3ccccc3)[nH]c2=S)c(OC)c1 | 14%
O=C(CCNS(=O)(=O)c1ccccc1)OCC(=O)c1ccc(Br)cc1 | -1.21%

Compound | hERG current change (%, negative = inhibition) at 1uM
Cc1cc(N2CCOCC2)nc2ccc(NC(=O)CCC(=O)N3CCC4(CC3)OCCO4)cc12 | 0.648%
CCCNC(=O)C(=O)NCC(c1ccc2c(c1)OCO2)N1CCN(c2ccc(F)cc2)CC1 (stereo not shown) | 10.2%
Cc1cccc(NC(=S)NC2CCSc3ccccc32)c1 (stereo not shown) | 16.3%
COC(=O)N1[C@H](Cc2ccccc2)C=C[C@]1(C)C(=O)O | 10.4%
Cc1ccc(-n2c(CNc3ccc(C)c(Cl)c3)n[nH]c2=S)cc1 | -6.2%
Cn1c(N)c(C(=O)COC(=O)c2ncc(Cl)c(Cl)c2Cl)c(=O)n(C)c1=O | -2.09%
Cc1cc(Cl)ccc1C(=O)C1CCCN(C(=O)c2ccsc2)C1 (stereo not shown) | 4.82%
O=[N+]([O-])c1cc(/C=N/n2cnnc2)ccc1N1CCCC1 | -4.85%
CC1CCN(C(=O)CN2C(=O)C(=O)N(C)C2=O)c2ccccc2S1 (stereo not shown) | 13.7%
CC(C)(C)OC(=O)N1CCCN(C(=O)Nc2ccc(C(F)(F)F)cc2)CC1 | 12.3%
Nc1ccc(C2CCCc3nonc32)c2nonc12 (stereo not shown) | 12.5%
NC(=S)N/N=C/c1ccc(/C=N/NC(N)=S)cc1 | 18.4%
Cc1ccccc1NC(=S)NNC(=O)c1cccnc1 | 7.85%
Clc1ccc(-c2cc(CN3CCOCC3)no2)cc1 | 16%
FC(F)Oc1ccccc1NC(=S)Nc1cccnc1 | 7.06%
Cc1cc(C)c(-c2nc3ccccc3s2)[nH]1 | 14%
OC(CNC1Cc2ccccc2C1)COc1ccc(F)cc1 (stereo not shown) | -7.42%
Cc1cc(-c2csc(N)n2)c(C)n1C | 12.2%
CC1(C)C(=O)OC(C(=O)c2ccc(Cl)cc2)C(C)(C)C1=O (stereo not shown) | -1.25%
C/C(=N\NC(=O)Cc1ccccc1[N+](=O)[O-])c1cccnc1 | 5.44%

Compound | hERG current change (%, negative = inhibition) at 1uM
COc1ccc(C(=O)N2CCN(S(=O)(=O)c3ccc(Br)cc3)CC2)cc1 | 11.6%
CC1(C)Cc2noc(N)c2C(C)(C)N1OC(=O)c1ccco1 | 13.6%
O=C(Nc1ccc(S(=O)(=O)N2CCOCC2)cc1)c1c(F)cccc1F | 9.81%
O=C(CNS(=O)(=O)c1ccccc1)N/N=C/c1ccc(O)cc1 | 6.73%
C[C@@H](O)[C@@H]1NC(=O)c2cc([N+](=O)[O-])cc(I)c2NCC[C@@H](C(N)=O)NC(=O)CNC1=O | 2.38%
CCCCCCCN1C=CC(=O)CC1 | 17%
Cc1ccc2c(CC(=O)O)coc2c1C | 12.7%
CCOc1cc(/C=N\NC(=O)c2ccc(NC(=O)CC)cc2)ccc1OC(=O)c1ccccc1 | 10.2%
C/C(=N\OCC(=O)N/N=C/c1ccccc1)c1cccs1 | -1.2%
CCOP(=O)(OCC)/C(=N/OC(=O)c1ccc(Cl)cc1Cl)C(N)=O | 13.6%
Cl.O=C(NCCN1CCNCC1)c1ccccn1 | 8.8%
CCN(CC)CCNC(=O)c1ccc(CS(=O)(=O)c2ccc(Br)cc2)o1 | -24.2%
CN(C)/C(CN1CCOCC1)=C1\N=C(c2ccccc2)OC1=O | 5.94%
Cc1[nH]c2ccccc2c(=O)c1C(=O)/C=C/c1ccccc1 | 7.73%
COc1ccccc1Cn1cnc2cccnc21 | 15.1%
CN(C)S(=O)(=O)c1ccc(Cl)c(C(=O)NCCNC(=O)c2cc(S(=O)(=O)N(C)C)ccc2Cl)c1 | 15.4%
O=C1COc2ccc(S(=O)(=O)N3CCCC3)cc2N1 | 18.1%
Cn1c(=O)c(C(=O)NCc2ccccc2)c(O)c2ccccc21 | 14.6%
